# Laboratory results as given in the supplement of paper PMC10037445.
# Over roughly 2,900 compounds, “IRF Lucia reporter activity, fold change vs agonist alone” has its median near 0.9; the highest 2% begin near 2.8. Some of the results follow.
# Key:
# [1] = test system: RAW-Dual; assay: IRF Lucia reporter activity, fold change vs agonist alone; higher = enhanced IRF activity; conditions: library stock concentration (final ~1000-fold dilution): 10 mM, agonist: MPLA (TLR4) […]
# In short: (§1)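 After 50 nL of library stock was delivered by pin tool to RAW-Dual macrophages (50,000 cells/well, DMEM, 384-well plates), a PRR agonist was added 1 h later and the plates were kept at 37 °C, 5% CO2. Twenty hours later, IRF was read from supernatant by QuantiLuc luminescence and NF-κB by QuantiBlue absorbance at 620 nm. Reporter activity is stated as fold change over agonist-alone wells. Wells with IncuCyte confluency under 70% of agonist controls in both mask sets were counted as cytotoxic.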
# [2] = test system: RAW-Dual; assay: IRF Lucia reporter activity, fold change vs agonist alone; cytotoxicity flag (confluency mask): not cytotoxic; higher = enhanced IRF activity
# In short: as §1
# [3] = test system: RAW-Dual; assay: IRF Lucia reporter activity, fold change vs agonist alone; cytotoxicity flag (confluency mask): cytotoxic (confluency <70% of control); higher = enhanced IRF activity
# In short: as §1
# [4] = cytotoxicity flag (confluency mask): cytotoxic (confluency <70% of control)
# [5] = cytotoxicity flag (confluency mask): not cytotoxic
# [6] = agonist: 3'3'-cGAMP (STING) 10 ug/mL
smiles,measurement,setting,value
C=C1C(=O)OC2C1CC/C(C)=C/CCC1(C)OC21 (stereo not given),IRF Lucia reporter activity,[1]; [4],0.0277
same,IRF Lucia reporter activity,[1]; [5],0.747
C=C1C(=O)OC2C1CC/C(C)=C/CCC1(C)OC21 (stereo not given) (library stock concentration (final ~1000-fold dilution): 10 mM),IRF Lucia reporter activity,[2]; [6],0.0893
same,IRF Lucia reporter activity,[2]; agonist: LPS (TLR4) 0.1 ug/mL,0.0169
same,IRF Lucia reporter activity,[3]; [6],0.036
same,IRF Lucia reporter activity,[3]; agonist: LPS (TLR4) 0.1 ug/mL,0.0142
Oc1cc(O)c2c(c1)OC(c1ccc(O)c(O)c1)C(O)C2 (stereo not given),IRF Lucia reporter activity,[1]; [5],1.02
Oc1cc(O)c2c(c1)OC(c1ccc(O)c(O)c1)C(O)C2 (stereo not given) (library stock concentration (final ~1000-fold dilution): 10 mM),IRF Lucia reporter activity,[2]; [6],0.998
same,IRF Lucia reporter activity,[2]; agonist: LPS (TLR4) 0.1 ug/mL,1.32
COc1cc(-c2cc(-c3cccc(O)c3)cnc2N)cc(OC)c1OC,IRF Lucia reporter activity,[1]; [5],0.416
COc1cc(-c2cc(-c3cccc(O)c3)cnc2N)cc(OC)c1OC (library stock concentration (final ~1000-fold dilution): 10 mM),IRF Lucia reporter activity,[2]; [6],0.109
same,IRF Lucia reporter activity,[2]; agonist: LPS (TLR4) 0.1 ug/mL,0.467
O=c1[nH]c(=S)[nH]c2nc(-c3ccccc3)c(-c3ccccc3)nc12 (library stock concentration (final ~1000-fold dilution): 10 mM),IRF Lucia reporter activity,[2]; [6],0.875
same,IRF Lucia reporter activity,[2]; agonist: LPS (TLR4) 0.1 ug/mL,0.934
O=C(NCC(O)CN1CCc2ccccc2C1)c1cc(NC2COC2)ncn1 (stereo not given) (library stock concentration (final ~1000-fold dilution): 10 mM),IRF Lucia reporter activity,[2]; [6],1.07
same,IRF Lucia reporter activity,[2]; agonist: LPS (TLR4) 0.1 ug/mL,1.2
CC12CCCN1CC1=NNC(=O)c3cc(F)cc4[nH]c2c1c34 (stereo not given) (library stock concentration (final ~1000-fold dilution): 10 mM),IRF Lucia reporter activity,[2]; [6],0.404
same,IRF Lucia reporter activity,[2]; agonist: LPS (TLR4) 0.1 ug/mL,0.134
COc1cc2c(c(OC)c1OC)-c1c(cc3c(c1OC)OCO3)C[C@H](C)[C@](C)(O)[C@H]2OC(=O)c1ccccc1 (library stock concentration (final ~1000-fold dilution): 10 mM),IRF Lucia reporter activity,[2]; [6],0.947
same,IRF Lucia reporter activity,[2]; agonist: LPS (TLR4) 0.1 ug/mL,1.22
CCN1CCN(c2ccc(Nc3cc(N(C)C(=O)Nc4c(Cl)c(OC)cc(OC)c4Cl)ncn3)cc2)CC1 (library stock concentration (final ~1000-fold dilution): 10 mM),IRF Lucia reporter activity,[2]; [6],1.05
same,IRF Lucia reporter activity,[2]; agonist: LPS (TLR4) 0.1 ug/mL,0.312
CCN1CCN(c2ccc(Nc3cc(N(C)C(=O)Nc4c(Cl)c(OC)cc(OC)c4Cl)ncn3)cc2)CC1,IRF Lucia reporter activity,[1]; [5],1
Oc1cc(O)cc(/C=C/c2ccc(O)c(O)c2)c1 (library stock concentration (final ~1000-fold dilution): 10 mM),IRF Lucia reporter activity,[2]; [6],0.253
same,IRF Lucia reporter activity,[2]; agonist: LPS (TLR4) 0.1 ug/mL,0.481
Oc1cc(O)cc(/C=C/c2ccc(O)c(O)c2)c1,IRF Lucia reporter activity,[1]; [5],0.636
Nc1nnc(-c2cccc(Cl)c2Cl)c(N)n1 (library stock concentration (final ~1000-fold dilution): 10 mM),IRF Lucia reporter activity,[2]; [6],1.1
same,IRF Lucia reporter activity,[2]; agonist: LPS (TLR4) 0.1 ug/mL,0.901
Nc1nnc(-c2cccc(Cl)c2Cl)c(N)n1,IRF Lucia reporter activity,[1]; [5],1.07
NCCNc1ccc(NCCN)c2c1C(=O)c1ccncc1C2=O.O=C(O)/C=C\C(=O)O.O=C(O)/C=C\C(=O)O,IRF Lucia reporter activity,[1]; [4],0.174
NCCNc1ccc(NCCN)c2c1C(=O)c1ccncc1C2=O.O=C(O)/C=C\C(=O)O.O=C(O)/C=C\C(=O)O (library stock concentration (final ~1000-fold dilution): 10 mM),IRF Lucia reporter activity,[3]; [6],0.256
same,IRF Lucia reporter activity,[3]; agonist: LPS (TLR4) 0.1 ug/mL,0.151
CN1CCCC(n2nc(Cc3ccc(Cl)cc3)c3ccccc3c2=O)CC1.Cl (stereo not given) (library stock concentration (final ~1000-fold dilution): 10 mM),IRF Lucia reporter activity,[2]; [6],0.982
same,IRF Lucia reporter activity,[2]; agonist: LPS (TLR4) 0.1 ug/mL,1.62
CN1CCCC(n2nc(Cc3ccc(Cl)cc3)c3ccccc3c2=O)CC1.Cl (stereo not given),IRF Lucia reporter activity,[1]; [5],1.12
CN(C)CCCN1c2ccccc2Sc2ccccc21.Cl,IRF Lucia reporter activity,[1]; [5],1.49
CN(C)CCCN1c2ccccc2Sc2ccccc21.Cl (library stock concentration (final ~1000-fold dilution): 10 mM),IRF Lucia reporter activity,[2]; [6],0.728
same,IRF Lucia reporter activity,[2]; agonist: LPS (TLR4) 0.1 ug/mL,1.08
CN(C)C(=O)c1cc2cnc(Nc3ccc(N4CCNCC4)cn3)nc2n1C1CCCC1 (library stock concentration (final ~1000-fold dilution): 10 mM),IRF Lucia reporter activity,[2]; [6],0.748
same,IRF Lucia reporter activity,[2]; agonist: LPS (TLR4) 0.1 ug/mL,0.74
CN(C)C(=O)c1cc2cnc(Nc3ccc(N4CCNCC4)cn3)nc2n1C1CCCC1,IRF Lucia reporter activity,[1]; [5],1.03
C=CC(C)(O)CCC=C(C)C (stereo not given),IRF Lucia reporter activity,[1]; [5],1.09
C=CC(C)(O)CCC=C(C)C (stereo not given) (library stock concentration (final ~1000-fold dilution): 10 mM),IRF Lucia reporter activity,[2]; [6],1.01
same,IRF Lucia reporter activity,[2]; agonist: LPS (TLR4) 0.1 ug/mL,1.3
CC(C)CC(NC(=O)CNC(=O)c1cc(Cl)ccc1Cl)B1OC(=O)CC(CC(=O)O)(C(=O)O)O1 (stereo not given),IRF Lucia reporter activity,[1]; [5],1.09
